Laboratory results as given in the supplement of paper PMC11417369.
± gives the standard deviation of the averaged measurements. Some of the results follow.

The sequences below were run on PfAP2-I AP2 domain 3 (GST-tagged) (assay: gcPBM binding intensity (ln(normalized median fluorescence intensity)); higher = stronger DNA binding).
In short: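 Plasmodium falciparum DNA-binding domains carrying a GST tag were expressed in E. coli and applied for 1 h, at about 25 μg on average, to an Agilent 4 × 180k array. The array held primer-extended double-stranded 36-bp intergenic genomic probes together with negative controls, and binding took place in 1× PBS with 1% milk, 0.2 mg/ml BSA, 0.5% salmon testes DNA and 0.03% Triton X-100. An Alexa488 anti-GST antibody detected bound protein, and the array was scanned at 488 nm. Binding intensity is taken as the highest Masliner-normalised natural-log median intensity across replicate spots of either probe orientation.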

Sequence | gcPBM binding intensity (ln)
AAATATATATGTATATGTACTTATTTATTTAAAAGG [XGTACX_site4093] | 7.58 ± 0.51
TTTATTATATATAAAAGTACACATTGTAAGGAAACA [XGTACX_site8560] | 8.2 ± 0.39
AAAAGTGATGAGACAAGTACTAACATATTATTATTA [XGTACX_site1533] | 7.58 ± 0.6
TTTTCTGTATAAACTTGTACATATATTTCCTTGTTT [XGTACX_site5745] | 7.87 ± 0.59
ATACCTATTTGATGAGTGCATTATCCAATATATGTA | 11.3 ± 0.65
ATATGTTCTACAAAAAAGATGTCGATTTATTTTCTT [CACACA_negctrl_site1179] | 7.51 ± 0.69
AAATAAAATATCAATTAAAACAGAATTGAATTTTTA [CACACA_negctrl_site181] | 7.21 ± 0.53
TATAAAATGACTATATATAATATTAAAAAAAAAAAA [TGCATGCA_negctrl_site387] | 7.76 ± 0.54
ATTATATATACATAATGTACATATATATATTACCTT [XGTACX_site7624] | 7.8 ± 0.52
TAAATTAAGAATTTTACACACATTAAATAAAAAAAA [CACACA_site3638] | 7.62 ± 0.52
AAAAAAAAAAAAAATTCACACACATATAAAAAATTA [CACACA_site8140] | 7.81 ± 0.34
AAATTAGGAAATTGCACACAAAAAAAAACATATTAT [CACACA_site4074] | 8.57 ± 0.12
TTTTTTTATTTTTTTATAAATGTATTTCTATTATTT [CACACA_negctrl_site1562] | 7.48 ± 0.68
TTTTTTTTTTTTTGTGTGCACCTTATTTTTTTGTAT [GTGCAC_site9617] | 10.7 ± 0.57
CAAACACCCAAACACACACACACATACATACATACA [CACACA_site8044] | 9.03 ± 0.4
CTATTGTTAAATATAATACACACGTTTTTAAAAATA [CACACA_site2183] | 7.78 ± 0.46
ATAGTAATGCATAAATATATATTATATATATATATA [XGTACX_negctrl_site576] | 9.21 ± 0.49
GTATATATTTTGTATTCATTTGTCACATATAATAGA [CACACA_negctrl_site506] | 7.97 ± 0.57
TCTTTCTCTCTTCAAAGTACATATAATATATACTTC [XGTACX_site7982] | 7.88 ± 0.52
CAGTTAATGTTGGTACTTTATATAAAAATGATATGA [CACACA_negctrl_site1600] | 7.88 ± 0.45
ATAACAACATTTGATAAACACACAGAAGTATAAATA [CACACA_site8739] | 7.61 ± 0.52
AAAATATAGTTATCAATATATAATATTTTTTTTTTA [CACACA_negctrl_site459] | 7.11 ± 0.51

Sequence | gcPBM binding intensity (ln)
TTATTAATATTGCATGCACACTATATAATAATTGAA [CACACA_site8258] | 8.74 ± 0.43
TATAAATAGGCATATACACACTTTTAATATTCATAA [CACACA_site6123] | 7.67 ± 0.53
ATTTTTCATATATATATATTAATATATATATATTAA [CACACA_negctrl_site1681] | 8.13 ± 0.28
TTTGAACGAAAATACTCACACATATTTATAAACATT [CACACA_site5182] | 7.45 ± 0.56
GTATTTTTAAATGACACACACATATATATATATATA [CACACA_site1662] | 9.35 ± 0.41
TGAATATTTATACATGCACACTAAAATAAAGAATCT [CACACA_site5351] | 8.935 ± 0.035
AAAAATATATTATATGTACACACAAAATTAAGGGAT [CACACA_site8384] | 8.35 ± 0.54
AAAATTTCTTTTTTTTGTACATATATAATAATATAT [XGTACX_site7107] | 7.82 ± 0.39
TTTTTTTTTTTTGAGTGTACTAAAATATTACCTTTT [XGTACX_site646] | 8.14 ± 0.91
TGGAAAAATAGGCACACACACATATATACCTATATA [CACACA_site4843] | 8.06 ± 0.3
AATATTATAAATGATACACACTTAAAATACACCCAC [CACACA_site5498] | 8.65
TGAATATTTACTTTAGCACACAATTTGTATTTGATT [CACACA_site960] | 8 ± 0.8
AATATATTTTAATACACACACACATATATATATATA [CACACA_site5969] | 9.59 ± 0.42
ATATGTATATAAATGTGTACTTATAAATATATATAT [XGTACX_site3250] | 8.8 ± 0.15
TTTTTTTTAAATATCACACACATATAACATATTCTA [CACACA_site7687] | 7.74 ± 0.46
TATAAATAAATGCGTACACACTAATAAAAAAAAAAA [CACACA_site4630] | 8.37 ± 0.18
GAAATAGAGAAACACACACACATATATTTATGTATT [CACACA_site3967] | 7.51 ± 0.47
ATAAAAATAAAAAGATGTACGTATTTTTTTTTTTTT [XGTACX_site5329] | 8.13 ± 0.33
CATTATTATGATAGTTGTACAATTTTTATAAAAAAT [XGTACX_site4411] | 7.93 ± 0.35
ATATTATTATAAACTTCACACATTTTATGGGTTTTT [CACACA_site4631] | 7.49 ± 0.61
TATATTATTTATATTTGTACACAGCGATATGAAATA [XGTACX_site987] | 7.93 ± 0.36
TACAATTTAAAACACACACACAATAATACATATATA [CACACA_site1251] | 7.92 ± 0.4

Sequence | gcPBM binding intensity (ln)
CATAAGCACAAGCACAAGCACACATTTATATATATA [CACACA_site882] | 8.72 ± 0.39
CGCATATTTTATGTTTGTACTCATATGAATATCATA [XGTACX_site4717] | 7.58 ± 0.36
TTGTATATATTAAATTGTACTTATTTTTTGTATATA [XGTACX_site3251] | 7.59 ± 0.28
GGATAAAATGCTACGAGTACATAAGCATTTTTCCCT [XGTACX_site7796] | 8.04 ± 0.36
TATAAACATATAAAAAGTACATACCAATTAATATTA [XGTACX_site967] | 7.54 ± 0.45
AATATATTCATCATATCAATATTGTCAAGCAAACGA [TGCATGCA_negctrl_site37] | 7.58 ± 0.59
TATTCTGTGTATAAAAGTACAAATATTTAAATGTAT [XGTACX_site8234] | 7.92 ± 0.41
TCTTTTAAAAATATAAAAAGGAATATATAAAAATGT [CACACA_negctrl_site332] | 8.22 ± 0.3
GAATTTATTTTATTTTCACACACAAAAATAAATATC [CACACA_site8762] | 7.97 ± 0.53
AATAAATAGATATATACACACATATATGTGTACATA [CACACA_site7476] | 7.83 ± 0.23
TTATCCATTTTAATCACACATACTTTACTTTGGAAC [CACACA_site5584] | 7.68 ± 0.67
AAAGGGGATATATGAACACACAAAAAAAAAATATAT [CACACA_site2896] | 8.02 ± 0.61
TGTAGTCTGGAGAAACGTACACAGTATCTGGTAACA [XGTACX_site4938] | 7.62 ± 0.42
TATTTATTACTATGTAAACACACATGCAATATATGT [CACACA_site8288] | 7.8 ± 0.61
ATATTTAAAGAATAAGTGCAAAATGTAATTAATTTT [GTGCAC_site9901] | 10 ± 0.29
TATATTTTATAAAAAAGTACACATGAAAATGTATTT [XGTACX_site5889] | 7.79 ± 0.42
AAATTTTATTATAGCAGTACAATATAATATTATTAA [XGTACX_site1971] | 7.82 ± 0.22
TTTTTTCCTTTTAATTGTACACAGATATAATATATT [XGTACX_site2230] | 8.03 ± 0.4
AAATATTTTTTTTCTACACACATACAAATATAGATT [CACACA_site7164] | 7.89 ± 0.79
ATGCCCCATATAAACACACAAATAAAAAGAATATAC [CACACA_site7292] | 8.26 ± 0.64
TATCATTTTATTATTCTACACACTTATCTATAATTA [CACACA_site7894] | 7.74 ± 0.49
TTTTTTTTTTTTTTTGCATGTTGTTTAATGTATTGT [TGCATGCA_site772] | 8.11 ± 0.59

Sequence | gcPBM binding intensity (ln)
AAATAAGAGCGTAGCACACACGCATTTTATAAATGT [CACACA_site741] | 7.58 ± 0.69
TGTTGATGATATTACACACCCAATGAGAAAAGGAAT [CACACA_site2072] | 8.14 ± 0.7
TTTTACAAAATAAAAATATAGAATACGGTAAATTAT [GTGCAC_negctrl_site40] | 7.87 ± 0.73
TAAAAATGTGGACACACACACATATTTATATTTAAT [CACACA_site6827] | 7.81 ± 0.18
AAAAAAAAAAAAAGTACACACTTTTGCGTACATGTA [CACACA_site7449] | 8.06 ± 0.63
AAAAAGTAGTAAAACAGTACAGTATTTATGCCTATT [XGTACX_site6434] | 7.79 ± 0.59
AATATATTTTTCTACCGTACATAATAAAATATATAT [XGTACX_site1777] | 7.95 ± 0.51
TATTTATTTATTTATTGTACATAAGTATATATTATA [XGTACX_site6566] | 7.91 ± 0.72
GAACCACTAAAATGAGCATGCTCATATTTACATATA [TGCATGCA_site1033] | 7.68 ± 0.64
ATTACATACACGCGCACACACAAAAAAAAAAAAAAA [CACACA_site1334] | 8.39 ± 0.13
GTACTCTTCTCCAGACTGCACTATACGACTCGTACA [GTGCAC_site9770] | 9.865 ± 0.049
ATATATATATATATATGTACTTATATATAATATAGA [XGTACX_site3488] | 9.05 ± 0.28
TGGTATGTTTTACAAAGTACCCATCGATTCTTATGT [XGTACX_site2822] | 7.74 ± 0.57
AAAAAAACATGAAACACACACAAATATTTATTTATA [CACACA_site6967] | 7.55 ± 0.52
TGTTTCCAAAAAAAAAAAAAAAAAAAAAAAAAAAAA [CACACA_negctrl_site358] | 8.31 ± 0.71
TATTATATATATAAATGTACTTATTTTAATTCCCCT [XGTACX_site8638] | 8.005 ± 0.049
TTTTGTTTATTATGATTCAAAATGATTTTATCTTTG [TGCATGCA_negctrl_site425] | 7.38 ± 0.67
AATAAATAAGCAACATGTACATACAAATATATACAT [XGTACX_site8529] | 7.7 ± 0.28
TTTAATTTTTTTAATTCACACATTATTCCATCCTTT [CACACA_site5480] | 7.71 ± 0.52
ATCTAATAAAAATACACACACATATGATTTGTGAAT [CACACA_site1867] | 7.5 ± 0.4
ATTTTCCATTGTGCTACACACAACGGTTCGCAATAA [CACACA_site2974] | 8.17 ± 0.59
TAAAAAAAATAGTCAAGTACATAAGAAGGGAAGAAA [XGTACX_site8733] | 7.88 ± 0.59
